Source: the RNAGym collection of RNA variant scans (doi:10.7554/elife.90254)
Read counts are not given, so values of variants with three or more changes are uncertain.

B1: LINE1-mini (parent)
chain: GGCAGAGCUCAACACAGCGUGGCAAAGUGGCUGUGGCUAGACUGCC

Variants of: B1
Experiment: self-cleavage, relative activity (ratio to wild type); higher = more cleavage; in vitro, sequencing; the parent is a self-cleaving ribozyme

Variant	self-cleavage
GGCCGAGCUCUAGACAGCGUGGCAAAGGGUUUUUGGCUAGACUGCC [A4C A11U C13G U28G G30U C31U G33U]	0.01
GGCCGAGCUCAACACCGCGUAGCAAAGUGGCUGUGGCUAGACUGCC [A4C A16C G21A]	0.07
GGCCGAGCUCAACACAGCGUGGCAAAGUGGUUGUGGCUAGACUGGC [A4C C31U C45G]	0.03
GGCCGAGCUAAACUCAGCGUGGCAAAGUGGCUGUGGCUAGACUGCC [A4C C10A A14U]	0
GGCCGAGCUCAAGACAGCGCGGCAAAGUGGCUGUGGGUAGACUGCC [A4C C13G U20C C37G]	0.02
GGCCGAGAUCAACACAUCGUAGCAAAGUGGCUGUGGCUAGACUGCC [A4C C8A G17U G21A]	0.24
GGCCGAGCUCAACACAGCGUGGCAAAGUGGCUGUGGCUAGUCUGGC [A4C A41U C45G]	0.29
GGCCGAGCUCUACAAAGCGUGGCAAAGUGGCUGUGGCUAGACUGCC [A4C A11U C15A]	0.07
GGCCGAGUUCAACACAUCGUGGCAAAGUGGCUGUGGCUAGACUGCC [A4C C8U G17U]	0.36
GGCCGAGCUCAACACAGAGUGGCAAAGUGGCUGUGCCUAGACUGCC [A4C C18A G36C]	0.02
GGCCGAGCUCAACACAGCGUGGCAAAGUGGCUGUGGACAGACUACC [A4C C37A U38C G44A]	0.23
GGCCGAGCUCAACACAGGGUGGCAAACUGGAUGUGGCGAGACUGCC [A4C C18G G27C C31A U38G]	0.06
GGCCGAGAACAACACAGCGUGGCAAAGUGGCUGUUGCUAGACUGAC [A4C C8A U9A G35U C45A]	0.31
GGCCGAGCUGAACACAGCGUGGCAAAGUGCCUGUGGCUAGACUGCC [A4C C10G G30C]	0.03
GGCCGAGCUCAACAUAGCGUGGCAGAGUGGCUGUGGCUAGACUCCC [A4C C15U A25G G44C]	0.11
GGCCGGGCUUAAUACAGCGUGGCAACGUGGCUGUGCCUAGACUGCC [A4C A6G C10U C13U A26C G36C]	0.02
GGCCGAGCUCAACACCGCGUGUCAAAGUGGCUGUGGCUACACUGCC [A4C A16C G22U G40C]	0.02
GGCCGAGCUCAACACAGCGUGGCCAAGUGGCUGUGGCGAGACUGCC [A4C A24C U38G]	0.02
GGCCGUCCUCAACAUAGCGUGGCAAAGUGGCUGUGGCUAGACUGCC [A4C A6U G7C C15U]	0.08

Variant	self-cleavage
GGCCGAGCUCCACACAGCGUGGCAAAGUGUCUGUGGCUAGACUGCC [A4C A11C G30U]	0.03
GGCCGAGCUCAACACCGCGUGUCAAUGUGGCUGUGGCUUGACGGCG [A4C A16C G22U A26U A39U U43G C46G]	0.15
GGUAGAGCUCAACACAGCGUGGCAAAGUGGCCGUGGCCAGACUGCC [C3U U32C U38C]	0.15
GGCCGGGCUCAGCACAGCGUGGCAAAGUGGAUGUGUUUAGACUGCC [A4C A6G A12G C31A G36U C37U]	0.08
GGCCGAGCUCAACACAGCGUGGCAAAGUGGGUGUGGCUAGACUGUC [A4C C31G C45U]	0.02
GGCCGAGCUCAGCACAGCGUGGCAAAGUGGCUGUGGCUAGAUUGCU [A4C A12G C42U C46U]	0.02
GGCCGAGCUCAUAACAGCUUGGCAAAGUGGCUGUGGCUAGACUCCC [A4C A12U C13A G19U G44C]	0.03
GGCCGAGUUCAACACAGCGUGGCAAAGUGGCUGUUGCUAGACUGCC [A4C C8U G35U]	0.05
GGCCGAGCUCAACACAGCGUGGCAAAGUGGUUGUGGCUGGUCUGCC [A4C C31U A39G A41U]	0.01
GGCCGGGCUCGACACAGCGUGGCAAAGUGGCUGUGGCAAGACUGCC [A4C A6G A11G U38A]	0.01
GGCCGAGCUCAACACAGCGUGGCACUGUGGCUUUGGCUAGACUGCC [A4C A25C A26U G33U]	0.05
GGCCGAGUUCAACACAGCGUGGCCAAGUGGCUUUGCCUAGACUGCC [A4C C8U A24C G33U G36C]	0.01
GGCCGAGCUCAACUCAGCGUGGCAAACUGGCUUUGGCUAGACUGCC [A4C A14U G27C G33U]	0.02
GGCCGAGCUCAACACAGUGUGGCAAAUUGGCUGUGGCAAGACAGCC [A4C C18U G27U U38A U43A]	0.15
GGCCGUGCUAAACAAAGCCUGGCAUAGUGGCUGUGGUUAGACUGCC [A4C A6U C10A C15A G19C A25U C37U]	0.02
GGCCGAGCUCAACACCGCGUGGCAAAGUGGCUUUGGCUAUACUACC [A4C A16C G33U G40U G44A]	0.12
GGCCGAGCUCAACACAGCGUGGUAAAGUGGAUGUGGCUCGACUGCC [A4C C23U C31A A39C]	0.01
GGCCGAGCUCAACACAGCGUGGCAAAGUGGCUGUGGCUGGACUGUC [A4C A39G C45U]	0.06
GGCCGAGCUCAACACAGGGUGGCAAAGAGGCUGUGGCUAGACUCUC [A4C C18G U28A G44C C45U]	0.02

Variant	self-cleavage
GGCCGAGCUCAUUACAGCGUGGCAAGGUGGCUGUGGCUAGACUGCC [A4C A12U C13U A26G]	0.03
GGCCGAGCUCAAAACAGCAUGGCAUAGUGGCUGUGGCUAGACUGCC [A4C C13A G19A A25U]	0.03
GGCCGAGCUCAACAAAGGGUGGCAAACUGGCUGUGGCGAGACUGCC [A4C C15A C18G G27C U38G]	0.07
GGCCGAGCUCAACACAGCGUGGAAAAGUGGCAGCGGCUAGACUGCC [A4C C23A U32A U34C]	0.08
GGCCGAGCUGAGCACAGCGUGGCAAAGUGGCUGAGGCUAGCUUGCC [A4C C10G A12G U34A A41C C42U]	0.03
GGCCGAGCUCACCGCAGCGUGGCAAAGUGGCUGUGGCUAGACUGCC [A4C A12C A14G]	0.02
GGCCGAGCUCUCCACAGCGUGGCAAAGUGGCUGUGGCUUGACUGCC [A4C A11U A12C A39U]	0.02
GGCCGAGCUCAACAAAGCGUGGCAAAGUGGCUCUGGCUAGACUGCC [A4C C15A G33C]	0
GGCCGAGCUCAACACAGCGUGGUAAAGUGUUUGUGGCAAGACUACC [A4C C23U G30U C31U U38A G44A]	0
GGCCGAGCUCGCCACAGCGUGGCACAGUGGCUAUGGCUAGACUGAC [A4C A11G A12C A25C G33A C45A]	0
GGCCGAGCUCCACAUAGCGUGGCAAAGUGGGUGUGCCUGGACUCCC [A4C A11C C15U C31G G36C A39G G44C]	0
GGUAGAGCUCAACACAGCGUGGCAAAGGGGCUGUGGCCAGACUGCC [C3U U28G U38C]	0.43
GGCCGAGCUCAACACAGAGUGGCAAAGUGGCUGUGGCUCGACUGCU [A4C C18A A39C C46U]	0.03
GGCCGAGCUCAAAACAGCGUGGCAAAGCGGCUGUGGCUAUACUGCC [A4C C13A U28C G40U]	0.85
GGCCGAGCUAAACACAGCGAGGCAAGGUGGCUGUGGCUAGACUGCC [A4C C10A U20A A26G]	0.02
GGCCGGGCUCAACACAGCGGGGCAAAGUGGCUGCGCCUAGACUGCC [A4C A6G U20G U34C G36C]	0.05
GGCCGAGCUCAACUCAGCGUGGCAAAAUGGCUGUGGCUAGACUGCC [A4C A14U G27A]	0.07
GGCCGAGCUCAACACAGCGUGGAAAAGUGGUUGUGGCUAGACUGCC [A4C C23A C31U]	0.01
